Data taken from PubChem BioAssay AID1347165 (National Center for Advancing Translational Sciences (NCATS), 2019).
Out of some 220,000 compounds screened, about 5,700 (2.6%) were called active. Inconclusive results, whose numbers are uncertain, are shown with a selection of clear calls. Calls come from the whole dose curve; as a rule, active = well fitted inhibition curve with a large enough effect; inconclusive = small, poorly fitted or top-dose-only effect; inactive = no such curve, though single readings can be large or run the other way. Potencies of inconclusive entries are doubtful fits and often do not repeat.

biological target: Lysine-specific demethylase 5B (Homo sapiens) (UniProt Q9UGL1); assay: Primary screen for KDM5B Histone Demethylases FDH-coupled qHTS; details: FDH-coupled NADH fluorescence (FDH is formaldehyde dehydrogenase); series mostly up to 57.7 µM; note: nearly all actives have a fitted effect of over 70% in size
Outline: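 Inhibition is measured as reduced NADH fluorescence generation from FDH coupling to formaldehyde release. Truncated KDM5BΔAP at 200 nM final acts on H3K4me3 peptide (12.5 µM in substrate mix) in pH 7.5 HEPES buffer with Tween-20, 30 min, room temperature.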
Potency is the fitted concentration of half-maximal effect; tags give direction and shape of the fitted curve.

Sequence of UniProt Q9UGL1 (Q9UGL1 whole entry, looked up, the tested form may be a part): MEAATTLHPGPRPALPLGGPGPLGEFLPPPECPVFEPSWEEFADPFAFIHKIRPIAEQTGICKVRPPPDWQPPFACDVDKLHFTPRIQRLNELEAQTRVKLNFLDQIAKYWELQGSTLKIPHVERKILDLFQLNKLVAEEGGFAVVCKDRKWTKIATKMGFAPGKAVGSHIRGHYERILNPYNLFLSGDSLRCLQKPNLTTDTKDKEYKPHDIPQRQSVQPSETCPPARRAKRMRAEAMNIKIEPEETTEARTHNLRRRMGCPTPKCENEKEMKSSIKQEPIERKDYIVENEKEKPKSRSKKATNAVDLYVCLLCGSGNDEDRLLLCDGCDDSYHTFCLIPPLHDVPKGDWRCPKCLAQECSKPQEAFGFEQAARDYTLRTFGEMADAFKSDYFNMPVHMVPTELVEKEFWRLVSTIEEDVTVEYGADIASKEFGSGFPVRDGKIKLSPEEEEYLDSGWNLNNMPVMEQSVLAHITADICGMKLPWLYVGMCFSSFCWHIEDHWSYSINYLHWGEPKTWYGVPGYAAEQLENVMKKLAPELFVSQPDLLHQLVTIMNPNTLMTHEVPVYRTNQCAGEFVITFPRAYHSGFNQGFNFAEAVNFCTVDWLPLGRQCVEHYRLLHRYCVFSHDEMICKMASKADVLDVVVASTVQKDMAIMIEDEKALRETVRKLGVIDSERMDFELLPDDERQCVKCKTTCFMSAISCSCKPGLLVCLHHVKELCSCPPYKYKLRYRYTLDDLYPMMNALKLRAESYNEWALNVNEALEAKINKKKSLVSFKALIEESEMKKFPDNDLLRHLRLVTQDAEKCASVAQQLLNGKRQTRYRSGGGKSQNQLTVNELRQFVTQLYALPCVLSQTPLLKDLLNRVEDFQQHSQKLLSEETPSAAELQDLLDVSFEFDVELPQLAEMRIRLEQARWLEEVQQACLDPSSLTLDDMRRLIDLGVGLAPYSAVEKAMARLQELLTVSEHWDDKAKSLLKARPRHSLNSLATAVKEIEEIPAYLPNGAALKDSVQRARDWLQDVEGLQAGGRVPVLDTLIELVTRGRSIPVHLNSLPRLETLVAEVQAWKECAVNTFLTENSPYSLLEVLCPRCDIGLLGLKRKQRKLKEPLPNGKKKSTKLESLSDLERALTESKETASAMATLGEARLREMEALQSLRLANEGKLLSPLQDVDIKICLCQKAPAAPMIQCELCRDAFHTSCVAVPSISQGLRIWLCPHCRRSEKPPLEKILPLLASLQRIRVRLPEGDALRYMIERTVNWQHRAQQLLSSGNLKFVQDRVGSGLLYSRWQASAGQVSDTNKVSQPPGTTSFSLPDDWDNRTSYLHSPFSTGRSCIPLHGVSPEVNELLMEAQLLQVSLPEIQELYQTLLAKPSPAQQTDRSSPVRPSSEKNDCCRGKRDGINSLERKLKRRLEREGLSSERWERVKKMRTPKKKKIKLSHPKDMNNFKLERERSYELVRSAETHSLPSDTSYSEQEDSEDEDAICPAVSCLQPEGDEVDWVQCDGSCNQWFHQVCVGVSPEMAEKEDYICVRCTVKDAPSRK

Compound | Potency
CCOc1ccccc1C(=O)Nc1ccc(OC)c2ncccc12 | inactive
CCOc1ccc(NC(=O)Cn2cnc3c(cnn3-c3cc(Cl)ccc3C)c2=O)cc1 | inconclusive: 39.8 µM [inhibitor, single point]
COCCN1CCCCCC(O)c2cc(C(=O)N(CCN(C)C)Cc3ccccc3)ccc21 (centres undefined) | inactive
O=C(O)c1ccc(CSc2nc3cccnc3n2Cc2cccc(F)c2)cc1 | inconclusive: 35.5 µM [inhibitor, single point]
CC(=O)Nc1ccc(NC(=O)c2c(-c3ccccc3)noc2C)cc1 | inconclusive: 1.41 µM [inhibitor, full curve, poor fit]
CC(C)(C)c1ccc(-c2nc(C3CC(=O)N(c4ccc(F)cc4)C3)no2)cc1 (centres undefined) | inactive
COc1ccc(CN2Cc3[nH]cnc3C[C@H]2c2nc(-c3ccc(C)cc3)no2)cc1 | inconclusive: 25.1 µM [inhibitor, partial curve]
CCOc1ccc(-c2cc(C(=O)NCCCN(C)C)c3ccccc3n2)cc1 | inconclusive: 25.1 µM [inhibitor, partial curve, poor fit]
COc1ccc(OC)c(NC(=O)CN(c2ccccc2OC)S(=O)(=O)c2ccc(C)cc2)c1 | inconclusive: 1.58 µM [inhibitor, full curve, poor fit]
Cc1[nH][nH]c(=O)c1C(c1cccc(OCc2ccc(Cl)cc2)c1)c1c(C)[nH][nH]c1=O | inconclusive: 10 µM [inhibitor, partial curve, poor fit]
Cc1ccc(C(=O)/C=C/c2cccc(C#N)c2)o1 | inconclusive: 17.8 µM [inhibitor, partial curve, poor fit]
O=C1c2ccccc2NC(c2cccc(Cl)c2)N1CCCN1CCOCC1 (centres undefined) | inconclusive: 22.4 µM [inhibitor, partial curve, poor fit]
Cc1noc(C)c1-c1cc(-c2cccc(N[S+](C)(=O)[O-])c2)cn2cncc12 | inconclusive: 35.5 µM [inhibitor, partial curve, poor fit]
COc1ccc(-n2cnc3cc(C(=O)NCCC4=CCCCC4)ccc32)cc1 | inconclusive: 25.1 µM [inhibitor, single point]
Cc1oc2ccn(Cc3cccc(F)c3)c(=O)c2c1C(=O)NCc1cccc(F)c1 | inactive
COC(=O)c1ccccc1NC(=O)Cc1nc(-c2ccc(OC)cc2)no1 | inconclusive: 28.2 µM [inhibitor, partial curve, poor fit]
Cc1ccc(C)c(C(=O)c2cc3ccccc3o2)c1 | inactive
CC(=O)NCCc1sc(-c2cccc(F)c2)nc1C | inconclusive: 17.8 µM [inhibitor, partial curve, poor fit]
Cc1nc2cc(NC(=O)CC3(C(=O)O)CCCC3)ccc2o1 | inconclusive: 39.8 µM [inhibitor, single point]
CN1CC(=O)N(C2CCCNC2)Cc2c1ncnc2N1CCc2ccccc2C1 (centres undefined) | active: 50.1 µM
CCOC(=O)C(NC(=O)COc1cccc2ccccc12)C(=O)OCC | inactive
O=c1[nH]c2ccccc2c(-c2ccccc2)c1Sc1nc2ccccc2o1 | inconclusive: 39.8 µM [inhibitor, single point]
COc1cccc(-c2nnc(SCC(=O)N3CCc4ccccc43)o2)c1 | inconclusive: 35.5 µM [inhibitor, single point]

Compound | Potency
CC(NC(=O)/C(C#N)=C\c1ccccc1OC(F)F)c1ccccc1 (centres undefined) | inconclusive: 20 µM [inhibitor, partial curve, poor fit]
CC(Nc1ncnc2c1cnn2-c1cccc(Cl)c1)c1ccccc1 (centres undefined) | inconclusive: 39.8 µM [inhibitor, single point]
Cc1cc2c(cc1C)NC(CC(=O)Nc1cccc(C)c1C)C(=O)N2 (centres undefined) | inconclusive: 15.8 µM [inhibitor, partial curve, poor fit]
CCS(=O)(=O)c1c(S(=O)(=O)CC)c2cc(C(C)(C)C)ccn2c1C(=O)c1ccc(F)cc1 | inactive
O=S(=O)(Nc1nc2ccccc2nc1NCc1ccc(F)cc1)c1ccc(F)cc1 | inactive
CC1(CCCCN2CCOCC2)COc2ccc(C(=O)NCc3ccc(F)cc3)cc2N1 (centres undefined) | active: 28.2 µM
COCCNC(=O)c1ccc2c(c1)N(C)C(CC(=O)N1CCC(C)CC1)CO2 (centres undefined) | active: 20 µM
Cc1nc(C23CC4CC(CC(C4)C2)C3)cs1 | inactive
CCCCCc1ccc(-c2ccc(C(C)=O)cc2)cc1 | inactive
Cc1ccccc1-c1noc(CN2CCC(O)CC2)n1 | inactive
CCOc1ccccc1NC(=O)Nc1ccccc1OCc1cc(=O)n2ccccc2n1 | inconclusive: 31.6 µM [inhibitor, partial curve, poor fit]
COCCN1CC(C(=O)N(C)Cc2ccc(OC)c3ncccc23)CCC1=O (centres undefined) | inconclusive: 17.8 µM [inhibitor, single point]
CCCC(=O)N(C)CCCc1ccccc1 | inactive
Cc1ccccc1C(=O)OC(C)CN1CCCCC1 (centres undefined) | inactive
COC(=O)c1cccc(OS(=O)(=O)c2ccc3oc(=O)ccc3c2)c1 | inactive
Cc1ccc(NS(=O)(=O)c2ccccc2)c(=O)n1CC(=O)N(C)C | inconclusive: 31.6 µM [inhibitor, partial curve, poor fit]
COc1ccc(S(=O)(=O)Nc2ccc(Nc3cc(N4CCCC4)nc(C)n3)cc2)c(C)c1C | inactive
O=C(c1ccncc1)N1CCCC(c2noc(COc3ccccc3)n2)C1 (centres undefined) | inactive
O=C(c1cn2ccccc2n1)N1C[C@@H](CO)[C@H](c2ccccn2)C1 | inconclusive: 28.2 µM [inhibitor, partial curve, poor fit]
COc1ccc(NC(=O)N2CCC(N3CC4CC(C3)[C@H]3CCCC(=O)N3C4)CC2)cc1 (some centres undefined) | inconclusive: 20 µM [inhibitor, partial curve, poor fit]
Cc1nn(-c2ccc(Cl)nn2)c2c1C(c1cccc3nccnc13)CC(=O)N2 (centres undefined) | inactive
N#Cc1ccc(CN2CCC[C@H]2c2nc(-c3ccnc(N4CCOCC4)c3)no2)cc1 | active: 35.5 µM
CCOC(=O)c1ccccc1NC(=O)CN(c1cc(C(F)(F)F)ccc1Cl)S(C)(=O)=O | inconclusive: 35.5 µM [inhibitor, single point]

Compound | Potency
COc1cccc(NC(=O)Cn2c(=O)c3cccn3c3ccc(F)cc32)c1 | inconclusive: 39.8 µM [inhibitor, single point]
CC(=O)N1CC[C@H](c2nnc(-c3cccnc3)o2)C1 | inconclusive: 31.6 µM [inhibitor, partial curve, poor fit]
Cc1ccc2c(C(=O)O)cc(-c3ccncc3)nc2c1C | inactive
Cc1ccncc1C(=O)N1CCCC(c2nnnn2C)C1 (centres undefined) | inconclusive: 14.1 µM [inhibitor, partial curve]
COCCCNC(=O)CCCN1C(=O)COc2ccc(C(=O)COc3ccc(OC)cc3)cc21 | inactive
COc1ccccc1CN(C)C(=O)c1cc(-c2cc(OC)c(OC)c(OC)c2)nc2ccccc12 | inconclusive: 28.2 µM [inhibitor, partial curve, poor fit]
COc1ccc(C(=O)Nc2nc3c(s2)C[C@@H]2[C@](C)(CO)[C@H](O)CC[C@@]2(C)[C@@H]3CC(=O)N2CCOCC2)cc1 | inconclusive: 22.4 µM [inhibitor, partial curve]
COC(=O)c1sc2cccc(F)c2c1S(=O)(=O)NCc1ccc(F)cc1 | inconclusive: 39.8 µM [inhibitor, single point]
Cc1c(CC(=O)NCc2ccco2)c(=O)oc2c(C)c(O)ccc12 | inactive
O=C1C[C@@H]2CCN(C(=O)COc3ccccc3)C[C@@H]2CCN1Cc1ccc2c(c1)OCO2 | inactive
Nc1nccnc1C(=O)Nc1cccc(C#Cc2cccs2)c1 | inconclusive: 22.4 µM [inhibitor, partial curve, poor fit]
O=C(Nc1ccc2oc(-c3ccc4ccccc4c3)nc2c1)c1cccc(Cl)c1Cl | inconclusive: 35.5 µM [inhibitor, partial curve, poor fit]
CSc1ccc(CCNC(=O)CN2C(=O)COc3ccc(S(=O)(=O)N4CCCC4)cc32)cc1 | inconclusive: 15.8 µM [inhibitor, partial curve, poor fit]
CCN1C(=O)C2CC3(CCN(C(=O)CC4CCCC4)CC3)CN2C1=O (centres undefined) | inactive
COc1cccc(N2CCN(C(=O)c3ccc4c(c3)N(C)C3CCCCCN3C4=O)CC2)c1 (centres undefined) | inconclusive: 28.2 µM [inhibitor, partial curve, poor fit]
COc1ccc(/C=N/NC(=O)c2sccc2C)c2ccccc12 | inconclusive: 28.2 µM [inhibitor, partial curve, poor fit]
CCOc1ccc2c(n1)CCN(C(=O)c1ccnn1C)C2 | inconclusive: 28.2 µM [inhibitor, partial curve, poor fit]
O=C(NCCN1CCOCC1)c1nn(-c2ccccc2)c(=O)c2ccccc12 | inactive
COc1cc(CN2CCC(C(O)(c3ccccc3)c3ccccc3)CC2)ccc1OCc1ccccc1 | inconclusive: 10 µM [inhibitor, partial curve, poor fit]
CC(C)c1cc(=O)oc2cc(OCC(=O)NC3(C#N)CCCCC3)ccc12 | inconclusive: 20 µM [inhibitor, partial curve, poor fit]
Cn1c(=O)c2c(nc(N3CCN(C(=O)c4ccco4)CC3)n2Cc2ccc(F)cc2)n(C)c1=O | inactive
CCCCC1CCC(C(=O)NNC(=O)c2ccc(Br)cc2)CC1 (centres undefined) | inactive
COCC(=O)NC1CCN(c2nc3ncccc3o2)CC1 | active: 31.6 µM
